# Reference: PubChem BioAssay AID1768 (National Center for Advancing Translational Sciences (NCATS), 2009)
# Hit rate of the full screen: of about 270,000 compounds, about 620 (0.23%) were called active. This list was built around the results that the source calls inconclusive (neither active nor inactive); the mix of calls is not that of the screen. Calls follow the shape of the dose curve; as a rule, active = well fitted inhibition curve with a large enough effect in the polarisation, with a control signal flat (not every such curve was filed as active); inconclusive = small, poorly fitted or top-dose-only effect, or effect the other way, or a change in a side signal; inactive = no such curve, though single readings can be large or run the other way; the % refers to the polarisation. Potencies of inconclusive entries are doubtful fits and often do not repeat. “Side channel” marks fits to a control or component signal instead of the main read-out.
# Target: Menin (Homo sapiens) (UniProt O00255)
# Assay: qHTS Assay for Inhibitors Targeting the Menin-MLL Interaction in MLL Related Leukemias: Competition With Texas Red Labeled MLL-derived Mutant Peptide; as to FP activity change, negative = inhibition: % of control where 0% means no effect
# Conditions: fluorescence polarization; FP activity change, negative = inhibition: at 61.6 µM (top of the series)
# Potency is read from the fitted curve at half-maximal effect; tags tell the direction and shape of the fitted curve or compound fluorescence and quenching.
# UniProt O00255, sequence (O00255 whole entry, looked up): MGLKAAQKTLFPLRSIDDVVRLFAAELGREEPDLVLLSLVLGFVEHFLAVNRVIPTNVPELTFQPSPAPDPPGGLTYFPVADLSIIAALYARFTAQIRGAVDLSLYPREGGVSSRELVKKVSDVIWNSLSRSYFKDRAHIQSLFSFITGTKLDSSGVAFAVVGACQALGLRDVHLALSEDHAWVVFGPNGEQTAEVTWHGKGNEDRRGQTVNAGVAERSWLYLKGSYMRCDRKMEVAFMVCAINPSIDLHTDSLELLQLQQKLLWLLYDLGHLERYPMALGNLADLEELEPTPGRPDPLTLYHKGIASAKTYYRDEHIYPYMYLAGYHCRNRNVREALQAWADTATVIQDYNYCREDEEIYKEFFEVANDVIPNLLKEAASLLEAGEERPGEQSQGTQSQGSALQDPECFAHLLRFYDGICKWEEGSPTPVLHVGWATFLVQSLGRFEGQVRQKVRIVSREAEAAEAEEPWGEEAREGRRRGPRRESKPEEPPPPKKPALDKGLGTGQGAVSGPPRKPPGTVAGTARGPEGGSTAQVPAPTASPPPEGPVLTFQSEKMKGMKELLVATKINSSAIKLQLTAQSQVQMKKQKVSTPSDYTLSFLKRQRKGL
Structure (SMILES),Potency,"FP activity change, negative = inhibition"
O=C(CSc1ccc([N+](=O)[O-])cn1)Nc1ccc(N2CCOCC2)c(Cl)c1,"inconclusive: 14.1 µM [quencher, side channel, partial curve]",
COc1ccc(OC)c(C(=O)COC(=O)c2cccnc2Cl)c1,"inconclusive: 25.1 µM [inhibitor, partial curve, poor fit]",
CCCCOc1ccc(C(=O)Nc2ccc3c(c2)C(=O)NC3=O)cc1,"inconclusive: 12.6 µM [inhibitor, partial curve]",
Cc1cc(C)c2nc(NCc3ccccc3O)sc2c1,"inconclusive: 11.2 µM [quencher, side channel, partial curve]",
O=C(O)c1ccc(S(=O)(=O)N(Cc2ccc(F)cc2)C2CCCCC2)cc1,"inconclusive: 35.5 µM [quencher, side channel, single point]",
Cc1cc(C)cc(N(CC(=O)NCC2CCCO2)C(=O)CN2C(=O)COc3ccccc32)c1 (configuration not stated),"inconclusive: 39.8 µM [inhibitor, single point]",
O=C(Nc1nc2ccccc2n1CCN1CCOCC1)c1cn(-c2ccccc2)nc1-c1ccccc1,"inconclusive: 7.08 µM [quencher, side channel, partial curve]",
COc1ccccc1-c1coc2c(CN3CCN(C)CC3)c(O)ccc2c1=O,inactive,
Cc1c(O)ccc(C(=O)COc2ccc(F)cc2)c1O,"inconclusive: 12.6 µM [quencher, side channel, partial curve]",
COc1cc(CNCc2cc(OC)c(OC)c(OC)c2)cc(OC)c1,"inconclusive: 25.1 µM [inhibitor, single point]",
CCOC(=O)Cn1c(=NC(=O)c2nc3ccccc3s2)sc2cc(S(N)(=O)=O)ccc21,"inconclusive: 39.8 µM [inhibitor, single point]",
COc1ccc(CNC(=O)COC(=O)c2ccccc2C(=O)c2ccccc2)cc1,"inconclusive: 15.8 µM [fluorescent, side channel, partial curve]",
CN(Cc1ccccc1)C(=O)c1nc2ccccn2c1CN1CCc2sccc2C1,"inconclusive: 5.62 µM [fluorescent, side channel, partial curve]",
CCC(Cc1ccccc1)n1c(=S)[nH]c2ccccc2c1=O (configuration not stated),"inconclusive: 12.6 µM [quencher, side channel, partial curve]",
C=CCN(Cc1nc(-c2ccccc2)no1)C(=O)c1ccco1,"inconclusive: 50.1 µM [inhibitor, partial curve]",
O=C(Cc1ccccc1)Nn1c(O)c(/C=C2\C=Nc3ccccc32)sc1=S,"inconclusive: 20 µM [quencher, side channel, partial curve]",
COc1ccc(OC)c(/C=N/NC(=O)c2[nH]nc3c2CCc2ccccc2-3)c1,"inconclusive: 20 µM [inhibitor, single point]",
Cc1ccc(NC(=O)Cn2c(=O)oc3cc(S(=O)(=O)N4CCC(C)CC4)ccc32)cc1C,"inconclusive: 39.8 µM [fluorescent, side channel, single point]",
O=C(Nc1cccc(S(=O)(=O)N2CCOCC2)c1)[C@@H]1CCCN1S(=O)(=O)c1ccc(Cl)cc1,inactive,

Structure (SMILES),Potency,"FP activity change, negative = inhibition"
Cc1ccccc1CN(C)C(C)C(=O)NCc1ccccc1 (configuration not stated),"inconclusive: 22.4 µM [fluorescent, side channel, partial curve]",
Cc1cccc2nc(CSc3ccc(Cl)cc3)cn12,"inconclusive: 6.31 µM [fluorescent, side channel, partial curve]",
Cc1cccc(N2CSC3=C(C#N)C(c4ccc(C)o4)CC(=O)N3C2)c1 (configuration not stated),"inconclusive: 25.1 µM [quencher, side channel, single point]",
O=C(N=Nc1c(O)[nH]c2ccccc12)c1cccc(S(=O)(=O)N2CCCCC2)c1,"inconclusive: 25.1 µM [quencher, side channel, partial curve]",
CCc1ccc(/C=C2\SC(N3CCCC3)=NC2=O)cc1,"inconclusive: 1.26 µM [fluorescent, side channel, full curve, poor fit]",
Cc1cccc(NC(=O)CSc2nc(NS(=O)(=O)c3ccccc3)cc(=O)[nH]2)c1,"inconclusive: 39.8 µM [fluorescent, side channel, single point]",
COc1cc(NC(=O)c2cc3c(Cl)nc4ccccc4c3s2)cc(OC)c1OC,"inconclusive: 10 µM [quencher, side channel, partial curve]",
Cc1ccccc1C(=O)NC1CCN(CC(=O)NCc2cccs2)CC1,"inconclusive: 25.1 µM [fluorescent, side channel, single point]",
OCC1NCC(O)C(O)C1O (configuration not stated),inactive,
CC(/C=N/NC(=O)c1n[nH]c2c1CCC2)=C\c1ccccc1,inactive,
O=C1c2sc3nc4c(c(=O)n3c2C(=O)N1c1ccccc1)CCC4,"inconclusive: 25.1 µM [quencher, side channel, single point]",
CCC(=O)NC(c1ccco1)c1cc(Cl)c2cccnc2c1O (configuration not stated),"inconclusive: 35.5 µM [quencher, side channel, single point]",
CCCCCCCCCC(=O)N[C@H](CN1CCOCC1)[C@H](O)c1ccccc1,"inconclusive: 39.8 µM [inhibitor, single point]",
O=C(Nc1ccc(Cl)cc1)Nc1ccc2c(c1)N1CCN=C1S2,"inconclusive: 28.2 µM [quencher, side channel, partial curve]",
COc1ccc(/C=N\Nc2ccccn2)c(OC)c1,"inconclusive: 39.8 µM [quencher, single point]",
C=C1C2c3ccccc3C(CC2(C)O[Si](C)(C)C)N1C(=O)OC (configuration not stated),,inactive: -3.23% [at 11.7 µM]
CCCCOc1ccc(C(=O)C(CN2CCOCC2)c2ccccc2)cc1 (configuration not stated),"inconclusive: 8.91 µM [inhibitor, full curve, poor fit]",
CCOC(=O)N1CCN(C(=O)CCN2C(=O)COc3ccccc32)CC1,"inconclusive: 5.62 µM [inhibitor, full curve]",
COc1ccc(C2=NS(=O)(=O)N(C)C(C(=O)Nc3ccc(OC)c(OC)c3)=C2)cc1,"inconclusive: 25.1 µM [quencher, side channel, partial curve]",

Structure (SMILES),Potency,"FP activity change, negative = inhibition"
O=C(c1ccncc1)N1CCC2(CCN(Cc3ccncc3)CC2)CC1,"inconclusive: 20 µM [quencher, side channel, single point]",
CCOC(=O)Cc1csc(SCC(=O)Nc2sc3c(c2C(N)=O)CCC3)n1,"inconclusive: 20 µM [quencher, side channel, partial curve]",
O=C(Nc1cccc(F)c1)N1CCCC2(CCN(C(=O)c3cc(C(F)(F)F)cc(C(F)(F)F)c3)CC2)C1,inactive,
O=C(Cn1cc([N+](=O)[O-])cn1)NC1CCCCCC1,inactive,
O=C(Nc1sc2c(c1C(=O)NCc1ccco1)CCCC2)c1ccc2c(c1)OCO2,"inconclusive: 15.8 µM [quencher, side channel, partial curve]",
C[C@H](NCc1c[nH]c2ccccc12)c1ccccc1,"inconclusive: 39.8 µM [quencher, side channel, single point]",
CC(C)c1ccc(S(=O)(=O)/N=C2/C=CC(=O)c3ccccc32)cc1,"inconclusive: 14.1 µM [quencher, side channel, partial curve]",
c1ccc(-c2ccccc2OCCOCCN2CCc3ccccc3C2)cc1,"inconclusive: 20 µM [inhibitor, partial curve, poor fit]",
CCOc1ccc(N2C(=O)C(Cl)=C(Nc3ccccc3O)C2=O)cc1,"inconclusive: 28.2 µM [quencher, side channel, single point]",
CCOc1ccc(NC(=O)Cn2nnc(-c3ccccc3NC(=O)c3cccs3)n2)cc1,"inconclusive: 5.01 µM [quencher, side channel, full curve, poor fit]",
COc1cc2[nH]c(-c3ccc(C)cc3)cc(=O)c2cc1OC,"inconclusive: 35.5 µM [inhibitor, single point]",
Cc1ccc(NC(=O)CSc2nnc(-c3ccco3)c(-c3ccco3)n2)cc1,"inconclusive: 28.2 µM [quencher, side channel, partial curve]",
CSc1ccc(/C=C/C(=O)c2ccc(O)cc2)cc1,"inconclusive: 31.6 µM [quencher, side channel, single point]",
CNC(=S)N(Cc1ccc(OC)cc1)C1CC(=O)N(c2ccc(C(=O)OC)cc2)C1=O (configuration not stated),"inconclusive: 15.8 µM [quencher, side channel, partial curve]",
CCOC(=O)Cn1nc(-c2ccccc2)c(-c2ccccc2)nc1=O,"inconclusive: 15.8 µM [inhibitor, partial curve]",
O=[N+]([O-])c1c(Nc2ccc(O)cc2)cc(Cl)c2nonc12,"inconclusive: 12.6 µM [quencher, side channel, partial curve]",
CCOc1ccc2[nH]c(=O)c(CN(Cc3nnnn3Cc3ccco3)C3CCCCC3)cc2c1,"inconclusive: 12.6 µM [quencher, side channel, partial curve]",
COc1cccc(Nc2ncccc2C(=O)Nc2ccccc2)c1,"inconclusive: 11.2 µM [quencher, side channel, partial curve]",
Cc1nn(-c2ccccn2)c2c1-c1nc(N3CCOCC3)ncc1CC2,"inconclusive: 39.8 µM [inhibitor, single point]",
